The whole screen tested about 150,000 compounds, of which about 540 (0.36%) showed an effect of 50% or more. The list shows a part of the results.
Test system: Plasmodium falciparum
Experiment: Primary screen in NF54 nanoGlo assay, in single point, at 2uM, 72h; a lower Z score goes with more inhibition
Assay type: functional, Erythrocyte
Conditions: timepoint 72 hour

Structure (SMILES) | % Inhibition | Z score
c1ccc(-n2cc(CN3CCCc4ccccc43)cn2)cc1 | 6% | -0.91
FC1(F)Oc2ccc(-c3ccc(-n4ccnc4)nn3)cc2O1 | 3% | -0.39
CCc1ccc(CC)c(NS(=O)(=O)c2c(C)cnn2C)c1 | 10% | -1.62
CCN(CC)CC1(NC(=O)c2ccc(CO)cc2)CC1 | 13% | -1.77
Cc1c(-c2ccccc2)[nH]c2c(CNC(=O)CN3CCCC3=O)cc(Cl)cc12 | -2% | 0.26
CC(C)c1ccc([C@H](C)NC(=O)N(CCO)Cc2nccn2C)cc1 | -16% | 2.93
Cc1cc(CCNC(=O)[C@H]2CCOC2)nn1C | -8% | 1.42
Cc1ccc(-c2noc(CCNC(=O)[C@@H]3CCCCn4nnnc43)n2)cc1 | -10% | 1.45
FC(F)c1cnc(N2CCC[C@H]2COc2ccccc2)nc1 | -14% | 2.34
c1cc(CNCc2cc[nH]n2)c2[nH]ncc2c1 | 11% | -1.46
C[C@H](O)c1cccc(N2CCc3c(CC(N)=O)cccc3C2)n1 | -9% | 1.3
Cc1ccccc1CNC(=O)CCNc1c(-c2cccc(F)c2)nc2cnccn12 | -15% | 2.17
COc1ccc(-c2nc(C)c3c(n2)N(C(C)C)C(=O)C3)cc1 | 1% | -0.17
Cc1ccc(-c2cc(C(=O)O)n(C)c2)cc1 | -18% | 1.59
COc1ccc2nc(O)c(-c3nc4c(C)cccn4c3Nc3ccc(C)cc3C)cc2c1 | -3% | 0.43
CNC(=NCc1ccc2c(c1)CCC2)NC | -1% | 0.18
CCCNC(=O)CCC(=O)N1CCC(c2ccccn2)CC1 | 17% | -2.19
C[C@@]12CCC3C[C@@]1(C(=O)Nc1cccnc1)OC[C@@]32C | -16% | 2.01
COc1ccc(Cc2ncnn2CCO)c(OC)c1 | 0% | 0.09
CCN1c2cc(C)ccc2-n2cccc2C12CCN(C(=O)Nc1cc(F)ccc1F)CC2 | -7% | 0.93
O=C(Cn1c(=O)c2cc(C3CC3)nn2c2ncccc21)Nc1ccccc1 | -15% | 1.62
CCc1nnsc1C(=O)N[C@H]1CCOc2ccccc21 | -3% | 0.44

Structure (SMILES) | % Inhibition | Z score
COc1cc(C(=O)Nc2cnoc2C(C)C)on1 | 18% | -2.12
CN1C(=O)C[C@H](NS(=O)(=O)Cc2ccc(F)cc2C#N)C1=O | -6% | 1.01
Cc1nn(C)cc1CN(C)c1ccc(C(C)C)nn1 | 10% | -1.97
Cc1nnsc1CN(C)C(=O)c1ccc(F)cc1 | -18% | 2.66
CCc1cc(C#N)ccc1NC(=O)N(C)C1CCS(=O)(=O)CC1 | -10% | 1.96
CCCc1[nH]nc(-c2cccs2)c1NC(=O)c1ccc(F)cc1F | 0% | -0.02
O=c1ccc(-c2ccc(S(=O)(=O)Nc3cccc(Cl)c3)o2)n[nH]1 | 15% | -1.74
O=C(NCc1nc2c(s1)CCCC2)Nc1cnc2c(c1)COCC2 | -1% | 0.16
CCOC1CC(O)(CNC(C)c2ccccn2)C1(C)C (centres undefined) | -9% | 1.02
CCN(CC1CCOCC1)c1nc(C)nc2oc(C)nc12 | -10% | 1.81
CC(C)N(Cc1nccn1C)C(=O)c1cn(CC2CCCCC2)nn1 | -5% | 0.72
Cc1sc2nc(-c3ccccn3)nc(NCC(=O)N3CCC(O)CC3)c2c1-c1ccccc1 | 25% | -2.12
CCc1cnc(CC(=O)N2CCC(=O)N3CCC[C@@H]32)[nH]1 | 6% | -1.27
Cc1n[nH]cc1CN(C)[C@@H](C)C(=O)Nc1ccccn1 | 6% | -0.61
CCN(Cc1cccnc1)C(=O)C(=O)c1ccccc1 | 21% | -1.99
CC(C)CCOc1cccc(CCNC(=O)N2CC[C@H](N(C)C)[C@@H](O)C2)c1 | -9% | 1.58
COc1cc(Cl)c(C)cc1NC(=O)c1cnn(-c2ccccc2)c1C1CCN(C(=O)OC(C)(C)C)CC1 | 2% | -0.34
CC(C)(C)OCc1cc(C(=O)N[C@H]2COCC2(C)C)no1 | 4% | -0.72
CCn1ncc(NC(=O)c2ccccc2OC)c(N2CCCCC2)c1=O | -10% | 1.99
CC[C@@H](CO)NCc1ccc(OC)c(OC)c1 | -6% | 1.06
C#CCCC1(CCC(=O)N2CCN(c3ccccn3)CC2)N=N1 | -3% | 0.31
COC(=O)CCNC(=O)c1ccc(N)cc1 | -8% | 1.11

Structure (SMILES) | % Inhibition | Z score
Cc1cccc(-c2noc(-c3cccnc3NCc3ccccn3)n2)c1 | 28% | -3.27
CCc1cccc2c1NC(=O)C21NC(CCC(N)=O)[C@H]2C(=O)N(CCc3ccccc3)C(=O)[C@H]21 (some centres undefined) | -4% | 0.32
NS(=O)(=O)N1CCC(CNC(=O)C2CCCCC2)CC1 | -4% | 0.51
Fc1ccc(CN2C[C@@H](F)[C@@H](OCc3nc4ccccc4o3)C2)cc1 | 0% | -0.07
Cc1ccc(C)c(-c2nn(CN3CCN(c4cccc(C(F)(F)F)c4)CC3)c(=O)c3ccccc23)c1 | 2% | -0.34
CN(Cc1ccccc1)c1ncccc1CNc1ncc(F)cn1 | -10% | 1.36
Cc1cc(C(=O)NCCCOc2ncccn2)ns1 | -8% | 1.19
CN(CC1CCCN(C2CCc3ccccc3NC2=O)C1)S(C)(=O)=O (centres undefined) | -15% | 2.86
CCNC(=O)C1CN(C(=O)[C@H](C)N(C)CC(F)(F)F)C1 | 28% | -3.14
COCCn1nc(C)c(CN[C@@H](C)c2ccsc2)c1C | 7% | -1.12
CCc1nc(C)cn1C[C@H]1COCCO1 | -3% | 0.35
CNC(=O)c1sc(N[C@H]2CCOc3ccccc32)nc1C | -12% | 1.18
CCn1ccnc(N2CCCCC2)c1=O | -1% | 0.18
Cc1nnc([C@H]2CCN(Cc3ccc(Cl)cc3)C2)o1 | -7% | 1.31
Cc1cnccc1CNC(=O)[C@@H]1C[C@H]1C(=O)NCc1ccncc1C | -5% | 0.65
CCc1nc(-c2cccc(NC(=O)c3ccc(C)c(NC(=O)c4ccco4)c3)c2)no1 | 2% | -0.42
C[C@H](NC(=O)C1CCCC1)c1cccs1 | -8% | 1.58
CC(NC(=O)N1CCCNC(=O)C1C)c1cccc(C#N)c1 (centres undefined) | -2% | 0.28
CN(c1cnccn1)S(=O)(=O)Cc1ccc(Cl)c(F)c1 | 0% | -0.01
Cc1nn(C)c(C)c1CNc1ncc2cccnc2n1 | -9% | 1.45
CCc1c(C(=O)Nc2cccc3ncccc23)ccn1C | 3% | -0.29
CCc1nnc(NC(=O)c2ccccc2-c2ccccc2C#N)s1 | -11% | 1.54

Structure (SMILES) | % Inhibition | Z score
O=C(NCc1cccnc1)N1CCOCC1CC(O)c1cccs1 (centres undefined) | -4% | 0.45
CCc1nn2c(-c3ccccn3)ccnc2c1-c1ccc(F)cc1 | -10% | 1.47
Cc1cc(C)c2c(C(=O)N3CCC[C@@H]3C)cc(-c3cnn(C)c3)nc2c1 | 2% | -0.32
CCCc1cnc(NC(=O)N2CC[C@H](c3cc(=O)[nH]c(=O)[nH]3)C2)s1 | -22% | 1.86
Cc1ccc(C(=O)N2CCC(N3C(=O)NC4(CCCC4)C3=O)CC2)cc1 | 7% | -1.25
COc1ccc(CN2C[C@H]3CN(Cc4ccc5c(c4)OCCO5)CCN3C2=O)cc1 | 16% | -1.92
O=C(c1ccc(OC(F)F)cc1)N1C[C@H](O)[C@@H](N2CCCC2)C1 | -5% | 0.89
C[C@@H](c1nc2ccccc2c(=O)[nH]1)N1CCC(c2ncco2)CC1 | -4% | 0.55
Cc1ccc(NC(=O)c2cn(C)nn2)cc1 | -9% | 1.2
Cc1cc(-n2nc(C)cc2NS(=O)(=O)c2cc(C)oc2C)nc(C)n1 | -3% | 0.63
Cc1cc(N)ccc1N1CCOCC1=O | -4% | 0.7
CCN(C(C)=O)c1nc(CN(Cc2ccc(Cl)c(Cl)c2)C2CC2)cs1 | 3% | -0.55
COc1ccc2c(C)c(C(=O)N3CCCO[C@@H](CN4CCCC4)C3)oc2c1 | -6% | 0.92
CC(C)c1nc2cc(NC(=O)CCNC(=O)c3cnccn3)ccc2n1C | -9% | 1.53
O=C(NCC(NC(=O)C1CCOC1)C1CCCCC1)C1CCOC1 (centres undefined) | 2% | -0.25
CCn1nc(C)c(Oc2ccccc2O)c1C | 6% | -1.07
Cc1cccc(Cn2nc(CC(N)=O)nc2CCC(F)(F)F)c1 | -3% | 0.53
CCCCn1c(C(=O)NCC(C)C)cc2cc(NC(=O)c3ccccc3Cl)ccc21 | -3% | 0.4
OC(CC1CCCCCN1Cc1cnc2ccccc2n1)c1cccs1 (centres undefined) | -9% | 1.62
Cc1nc(-c2ccc(C)c(N3CCN(C(=O)Nc4ccccc4C(F)(F)F)CC3)c2)no1 | -11% | 1.43
CCCCN(Cc1ccccc1)c1ccc(NS(=O)(=O)c2cccc(C)c2)cc1C(=O)O | -15% | 1.44

Source: ChEMBL document CHEMBL4888484, “Replenishing the malaria drug discovery pipeline: Screening and hit evaluation of the MMV Hit Generation Library 1 (HGL1) against asexual blood stage Plasmodium falciparum ,using a nano luciferase reporter read-out” (2022)
